From PMC6316070 (Marine Drugs, 2018)
Values after ≈ are worked out from the molar mass of the structure shown. Like-named read-outs stand apart in the source and are kept apart here. Marks after values point to notes of the source that are not given here. Starred links: 1 amine or outer side, 2 acyl side, 3 side chain; linkers in the order of their positions; H or OH if unused. Non-standard residues stand in square brackets, D forms with d. Residues, ends and D or L forms follow the SMILES beside them. Pentanoyl(2-O,4-OH,5-Cl) = O=C(O)C(O)CC(O)CCl; X3 = C[C@H]1CCN([*:1])[C@@H]1C(=O)[*:2]; X2 = O=C([C@@H](CC(O)CCl)O[*:1])[*:2]; dLac(3-vinyl) = C=CC[C@@H](O)C(=O)O; NMeI = CC[CH](C)[CH](NC)C(=O)O; X1 = CC1CCN([*:1])C1C(=O)[*:2]; dHica = CC(C)C[C@@H](O)C(=O)O; NMeV = CN[C@H](C(=O)O)C(C)C; NMeA = CN[CH](C)C(=O)O; βAla = NCCC(=O)O

Columns and labels:
Heterodera avenae [1] = test: whole plant or invertebrate; details: 48 h, read-out: Nematicidal activity (LC50)
Rhizoctonia cerealis = test: microbe, parasite or virus in culture; details: Ceratobasidium cereale
Valsa mali = test: microbe, parasite or virus in culture; details: Cytospora mali
Heterodera avenae [2] = details: in vivo
[3] = read-out: Antifungal activity MIC, R. cerealis, broth microdilution
[4] = read-out: Antifungal activity MIC, V. mali, broth microdilution
[5] = read-out: Antifungal activity MIC, R. cerealis
[6] = read-out: Antifungal activity MIC, V. mali

## CCC(C)C1NC(=O)C2C(C)CCN2C(=O)C(CC(O)CCl)OC(=O)CCNC(=O)C(C)N(C)C(=O)C(C(C)CC)N(C)C1=O (stereo not drawn) [Compound 1, Trichomide D] (cyclo([X1]I[NMeI][NMeA][βAla][Pentanoyl(2-O,4-OH,5-Cl)]); configuration not given here)
Heterodera avenae [1]
  LC50: 94.9 mg/L (≈ 144 µM)
Rhizoctonia cerealis; [3]
  MIC: 128 mg/L (≈ 194 µM)
Valsa mali; [4]
  MIC: 256 mg/L (≈ 389 µM)

## C=CC[C@H]1OC(=O)CCNC(=O)[C@H](C)N(C)C(=O)[C@H]([C@@H](C)CC)N(C)C(=O)[C@H]([C@@H](C)CC)NC(=O)[C@@H]2[C@@H](C)CCN2C1=O [Compound 2, destruxin A5] (cyclo(I[NMeI][NMeA][βAla][dLac(3-vinyl)][X3]))
Heterodera avenae [1]
  LC50: 144 mg/L (≈ 237 µM)

## CC[C@H](C)[C@@H]1NC(=O)[C@@H]2[C@@H](C)CCN2C(=O)[C@@H](C[C@@H](C)CO)OC(=O)CCNC(=O)[C@H](C)N(C)C(=O)[C@H]([C@@H](C)CC)N(C)C1=O [Compound 3, trichomide A]
Heterodera avenae [1]
  LC50: > 500 mg/L

## CC[C@H](C)[C@@H]1NC(=O)[C@@H]2CCCN2C(=O)[C@@H](CC(C)C)OC(=O)CCNC(=O)[C@H](C)N(C)C(=O)[C@H]([C@@H](C)CC)N(C)C1=O [Compound 4, homodestruxin B] (cyclo(I[NMeI][NMeA][βAla][dHica]P))
Heterodera avenae [1]
  LC50: 222 mg/L (≈ 365 µM)
Rhizoctonia cerealis; [3]
  MIC: 256 mg/L (≈ 421 µM)
Valsa mali; [4]
  MIC: 128 mg/L (≈ 211 µM)

## CC[C@H](C)[C@@H]1NC(=O)[C@@H]2CCCN2C(=O)[C@@H](CC(O)CCl)OC(=O)CCNC(=O)[C@H](C)N(C)C(=O)[C@H](C(C)C)N(C)C1=O (stereo partly drawn) [Compound 5, destruxin chlorohydrin] (cyclo(I[NMeV][NMeA][βAla][X2]P))
Heterodera avenae [1]
  LC50: 208 mg/L (≈ 330 µM)

## C=CC[C@H]1OC(=O)CCNC(=O)[C@H](C)N(C)C(=O)[C@H](C(C)C)N(C)C(=O)[C@H]([C@@H](C)CC)NC(=O)[C@@H]2[C@@H](C)CCN2C1=O [Compound 6, roseotoxin B] (cyclo(I[NMeV][NMeA][βAla][dLac(3-vinyl)][X3]))
Heterodera avenae [1]
  LC50: 293 mg/L (≈ 496 µM)

## CC[C@H](C)[C@@H]1NC(=O)[C@@H]2[C@@H](C)CCN2C(=O)[C@@H](CC(C)CO)OC(=O)CCNC(=O)[C@H](C)N(C)C(=O)[C@H](C(C)C)N(C)C1=O (stereo partly drawn) [Compound 7, roseotoxin C]
Heterodera avenae [1]
  LC50: > 500 mg/L

## CC(=O)OCC(C)=CCCC(C)(O)C1CCC(C)(O)C1C (stereo not drawn) [Compound 8, Cyclonerodiol C]
Heterodera avenae [1]
  LC50: > 500 mg/L
Rhizoctonia cerealis; [5]
  MIC: 128 mg/L (≈ 429 µM)
Valsa mali; [6]
  MIC: 128 mg/L (≈ 429 µM)

## CC1C(C(C)(O)CC=CC(C)(C)O)CCC1(C)O (stereo not drawn) [Compound 9, Cyclonerodiol D]
Heterodera avenae [1]
  LC50: > 500 mg/L
Rhizoctonia cerealis; [5]
  MIC: 128 mg/L (≈ 499 µM)
Valsa mali; [6]
  MIC: 64 mg/L (≈ 250 µM)

## CC(=CCCC(C)(O)C1CCC(C)(O)C1C)C(=O)O (stereo not drawn) [Compound 10, ascotrichic acid]
Heterodera avenae [1]
  LC50: > 500 mg/L

## CC(C)(C)C(O)(CCc1ccc(Cl)cc1)Cn1cncn1 (stereo not drawn) [Tebuconazole, tebuconazole, reference compound]
Rhizoctonia cerealis; [5]
  MIC: 8 mg/L (≈ 26 µM)
Valsa mali; [6]
  MIC: 16 mg/L (≈ 52 µM)

## abamectin
Heterodera avenae [2]
  Nematicidal activity (LC50): 23.1 ^b μg/mL
